Laboratory results published in the supplement of paper PMC4466236.
In all, about 33,000 sequences were measured (“E-score (dimensionless, -0.5 to 0.5)”: median about -0.058, highest 2% from about 0.35 on). This is one part of the list.

System: MvaT
Test: PBM 8-mer E-score (mean of HK and ME arrays) (E-score (dimensionless, -0.5 to 0.5)); higher = stronger relative binding preference; most listed sequences are background and not binding sites
Summary of the method: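 Full-length P. aeruginosa MvaT, with glutathione S-transferase fused to its N-terminus (cloned into pTH6838 by isothermal assembly), was tested by protein binding microarray using a previously described protocol. Two universal double-stranded 60-mer arrays (ME and HK) were used, each with a constant 25-mer primer region and a variable 35-mer region covering all 8-mers. The rank-based 8-mer E-score (-0.5 to 0.5) is the mean of the two arrays, parsed with a custom Python script.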

| Sequence | PBM 8-mer E-score |
| --- | --- |
| CGCCACTC | -0.172 |
| CAGATCAG | -0.155 |
| ACTGGATC | -0.231 |
| CGTTCCTA | -0.143 |
| AAATGAAT | 0.286 |
| AGATAATA | 0.366 |
| AAAGCGCC | -0.135 |
| GAGGTGCA | -0.168 |
| AGAGAAAT | 0.134 |
| AAACGTGG | -0.101 |
| CACTCACC | -0.00829 |
| AAGGCTCT | -0.24 |
| AGTCCCCC | -0.306 |
| AGAAGAAT | 0.0662 |
| ATGTCCCC | -0.219 |
| CCTTTGGA | -0.14 |
| ATTACTTC | 0.348 |
| CTTATATC | 0.184 |
| AGGATAGA | -0.139 |
| CCTAATCA | -0.0355 |
| AGATCCCC | -0.279 |
| CTCTTAAA | 0.125 |
| AGTCTCGG | -0.109 |
| ATGGCATA | 0.0609 |
| AGCCCATG | -0.157 |

| Sequence | PBM 8-mer E-score |
| --- | --- |
| GGATCCCC | -0.289 |
| CATCTGCA | -0.119 |
| CTTGGCCC | -0.249 |
| GTGCTACA | -0.00216 |
| GTTGCCCA | -0.152 |
| AGCTTGTG | -0.121 |
| ACGTGGAA | -0.126 |
| AGGGAGAC | -0.191 |
| CCTCTGGC | -0.359 |
| TTCGAAAA | 0.164 |
| TAGCAGAA | 0.0296 |
| ATTTAGCA | 0.237 |
| AGGATGAG | -0.0489 |
| CGCGAATC | -0.113 |
| ACCAAGAA | -0.0662 |
| ATACTCCC | 0.157 |
| AAGTAGTA | 0.289 |
| AACACTGA | 0.164 |
| CTATTGCC | 0.0325 |
| GCAGAGCC | -0.388 |
| CGGCGTGC | -0.257 |
| GGGCTAAC | -0.0538 |
| AACTCATC | -0.0983 |
| CCGAAACC | -0.165 |
| ACTCCATG | -0.0328 |

| Sequence | PBM 8-mer E-score |
| --- | --- |
| CACGCTAG | -0.0779 |
| AACGGAAG | -0.0172 |
| CCGTTCAA | 0.0774 |
| GTAATCCA | 0.0646 |
| AGAATCAA | 0.0548 |
| AGATTTGG | -0.0242 |
| CCGACTCG | -0.155 |
| TACATCAA | 0.116 |
| CACAACCA | 0.0819 |
| AATTCTGC | 0.148 |
| GAGTGGGC | -0.211 |
| AAGCGGCG | -0.201 |
| CCATCAAC | -0.145 |
| AACAGAGA | -0.0527 |
| ATGGGGCC | -0.287 |
| CTATGTTC | -0.172 |
| AATAGTAT | 0.308 |
| CAATGAAG | 0.0843 |
| AACGGTTA | 0.0448 |
| AACTTATT | 0.398 |
| ACACTAGC | 0.00371 |
| GCCAGCGA | -0.185 |
| AGACCACT | -0.108 |
| AATAAGTC | 0.298 |
| AAATACAA | 0.33 |

| Sequence | PBM 8-mer E-score |
| --- | --- |
| CGGGGGTC | -0.393 |
| AACTGTAG | 0.125 |
| AAGTATCC | 0.0849 |
| CGGACACG | -0.242 |
| CCGGCTCG | -0.246 |
| CGACGAGA | -0.132 |
| GGGAACCC | -0.303 |
| CATGAAAA | 0.0813 |
| CACTTCGC | -0.174 |
| GCCTGTAC | -0.0378 |
| CCACTAGG | -0.207 |
| AATACCGC | 0.146 |
| CTTCATAA | 0.172 |
| CGACAACA | 0.0714 |
| ATTTTCCA | 0.157 |
| GGTCGCAC | -0.201 |
| ACTTCCAT | 0.123 |
| GGGTCCTA | -0.211 |
| CATTGACC | -0.0108 |
| GAGCTACC | -0.307 |
| GCTGTGCC | -0.235 |
| CCAATAAG | 0.183 |
| ACGCCTTA | 0.0578 |
| GTATCCGA | 0.0204 |
| CCACGGAA | -0.115 |

| Sequence | PBM 8-mer E-score |
| --- | --- |
| GAAGTCGC | -0.22 |
| TGCCCGAA | -0.139 |
| GAGAAGCC | -0.351 |
| CGTGAACC | -0.142 |
| AGAGGATG | -0.0274 |
| AACACAGG | 0.0764 |
| ACCTCACG | -0.223 |
| CTAATGCC | -0.032 |
| GGTATCGA | -0.0823 |
| GCCTCTTA | -0.0973 |
| GTAACAAA | 0.205 |
| CACTGACC | -0.15 |
| CTCTCAAC | -0.159 |
| AGTTCGAA | 0.239 |
| CTTCGGTA | -0.0193 |
| AGACAAAT | 0.166 |
| CTTCGCTA | -0.089 |
| TCAGAGAA | -0.032 |
| CGATTACC | -0.0813 |
| AGGCTAAG | -0.0142 |
| ACCGTATC | -0.173 |
| CATATAAG | 0.35 |
| ATGCTGAA | 0.0334 |
| AAGCCATC | -0.28 |
| ATCGCGCA | -0.00115 |

| Sequence | PBM 8-mer E-score |
| --- | --- |
| GAACACAA | 0.105 |
| GTCATCAC | -0.143 |
| GCCTCTCC | -0.28 |
| AATATTAG | 0.394 |
| TCCTTAGA | -0.0864 |
| CACGTCCA | -0.161 |
| AGACCTGA | -0.143 |
| ATTAGTTA | 0.335 |
| CAGCCGAC | -0.18 |
| TAGGGAGA | -0.211 |
| AGGCGTGC | -0.207 |
| ATTCAGTG | 0.125 |
| AGACTATC | 0.0256 |
| ACAGTAGG | -0.0165 |
| AGCGCACG | -0.181 |
| CGTCAGTA | -0.0255 |
| AAAACGAG | -0.122 |
| AGGTTTAA | 0.15 |
| GAGGGAGC | -0.357 |
| CCGGCGAG | -0.216 |
| TGATATAA | 0.353 |
| ACTGCTTG | -0.0798 |
| ACTACAGA | 0.104 |
| ATCCCCTG | -0.172 |
| GCATGAAA | 0.0774 |

| Sequence | PBM 8-mer E-score |
| --- | --- |
| CGCCCTGA | -0.181 |
| CTGGTATC | -0.0511 |
| ACGATCTG | -0.0774 |
| AGCAGGGC | -0.242 |
| GCACCGCC | -0.175 |
| AAGACATT | 0.154 |
| GATCGGTA | 0.00837 |
| ACATGGAG | -0.0517 |
| ATAATTAA | 0.456 |
| AGCATCAC | -0.113 |
| ACAAGTGT | 0.0313 |
| GAGCTCCA | -0.28 |
| AACTACAT | 0.208 |
| ACTTCTAT | 0.228 |
| CCTCCAGG | -0.333 |
| CACAAACC | 0.0517 |
| ATGCACGA | -0.132 |
| CTCAGGAC | -0.232 |
| GACCGCAA | -0.0752 |
| GCGGTTCA | 0.0149 |
| GCAACCTA | -0.0596 |
| CCCCCAAG | -0.341 |
